This is one part of the list.

The experiment has as its target T1, OsWOX13 (Oryza sativa, UniProt Q5QMM3 1-267).
T1 sequence: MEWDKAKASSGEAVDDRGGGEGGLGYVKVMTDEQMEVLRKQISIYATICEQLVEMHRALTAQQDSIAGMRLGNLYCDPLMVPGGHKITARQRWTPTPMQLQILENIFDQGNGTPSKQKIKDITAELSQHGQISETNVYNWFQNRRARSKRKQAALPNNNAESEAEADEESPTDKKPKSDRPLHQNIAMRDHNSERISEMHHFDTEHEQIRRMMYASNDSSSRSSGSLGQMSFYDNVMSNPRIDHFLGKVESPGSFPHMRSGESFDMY
The experiment in a line: protein-binding microarray (RPBM); PBS, 2% BSA, 51.3 ng/ul salmon testes DNA, 50 uM zinc acetate, 200 nM TF, 25 C, 1 h; high values mean tight binding. As to conditions: protein: recombinant; tags: N-terminal polyhistidine and DsRed monomer fusion (pET32a); label: CyDye5-dUTP incorporated in the synthesized complementary strand; 3' TTTTT single-stranded linker to array surface; dsDNA, one strand shown. In outline: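 Transcription factors were made in E. coli BL21-CodonPlus as N-terminal fusions to a polyhistidine tag and DsRed, then purified on Ni–NTA. After primer extension with Cy5-dUTP and blocking with 2% BSA, a custom Agilent array was exposed for 1 h at 25 °C to 200 nM protein in PBS, 2% BSA, salmon testes DNA and 50 µM zinc acetate. Washed arrays were scanned on an Axon 4000B, and the binding signal is per-feature fluorescence intensity in arbitrary units.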
With “TCATCGTGGTATTAATTATTTAATAATTATAAATATATTTCGGAGTCACCTAGTGCAG”, the binding signal is 10200 fluorescence intensity (a.u.).

Take “GTGGATTTATCTTTAAATTATTTCAAAATAATGAATCACACGGAGTCACCTAGTGCAG”: the binding signal was 3740 fluorescence intensity (a.u.). Turning to “TCAAACTTACATAATTTACATGCCATGTTATCCAATATGCCGGAGTCACCTAGTGCAG”, the binding signal is 11100 fluorescence intensity (a.u.). For the sequence “ATCACATAATTACATATGTGAATGTAAAACAACTAATAATCGGAGTCACCTAGTGCAG”, the binding signal is 8670 fluorescence intensity (a.u.).

In the case of “AAGATAGATAGGTGAGGCATACGGTGAGTACCGAGTAGGACGGAGTCACCTAGTGCAG”, the binding signal was 3710 fluorescence intensity (a.u.).

Turning to “CTACTCATTAATTATTTAATTATATGAAATTTTCACACTTCGGAGTCACCTAGTGCAG”, the binding signal was 30700 fluorescence intensity (a.u.). Next, “GGCAGGCAGCCCTGATTAGCTAAACACGTCATTGCTCAGGCGGAGTCACCTAGTGCAG”: 4270 fluorescence intensity (a.u.); “CTTTAAAATTTATTCCAAATTATAACAATATTTTCTTCTCCGGAGTCACCTAGTGCAG”: 3410 fluorescence intensity (a.u.); “TTTAATTAATTGTAGGACAAGATAGCAAACGTGTGGCTACCGGAGTCACCTAGTGCAG”: 59900 fluorescence intensity (a.u.). With “TACACTGATTGACAGACATTGAGCCTGTAGCTGGAAAGATCGGAGTCACCTAGTGCAG”, the binding signal was 40500 fluorescence intensity (a.u.). Take “CCTAATCTGCTCTGTAAATGGCAGATTACCGGGTCGTTTACGGAGTCACCTAGTGCAG”: the binding signal is 3260 fluorescence intensity (a.u.). Next, “ATTTTCTATCTGGACATGATTGACCTCACGTTTCACCGTCCGGAGTCACCTAGTGCAG”: 18400 fluorescence intensity (a.u.).

As for “ATAACTTACAGTAATCACGTGGTTATTACGATAACCGTCGCGGAGTCACCTAGTGCAG”, the binding signal is 8060 fluorescence intensity (a.u.). Next, “TCTGATGGATTTGTAACAGCAGCTTTCAGATCTCTCTTTCCGGAGTCACCTAGTGCAG”: 34600 fluorescence intensity (a.u.).

In the case of “GAAGACCGCCATTGTTGATTGGAAGAAGAGGAAAAGGACGCGGAGTCACCTAGTGCAG”, the binding signal was 16400 fluorescence intensity (a.u.).

With “TATGATAAAATTGTTACATCATTTACCAGATGATTTAGAACGGAGTCACCTAGTGCAG”, the binding signal was 7880 fluorescence intensity (a.u.). Next, “GATCAATCATAACCATCTAGACGTTCATTGTGAGTAGTGCCGGAGTCACCTAGTGCAG”: 30700 fluorescence intensity (a.u.). As to “AGTTGATGGACTGAAATGGAACCATTAGGTAGCAAACATTCGGAGTCACCTAGTGCAG”, the binding signal is 13500 fluorescence intensity (a.u.). Next, “ATTAGATTGGCTATAGATGAATTGGAGCTGGTAGTAGGCTCGGAGTCACCTAGTGCAG”: 49400 fluorescence intensity (a.u.). On to “AGCTGCATAATTGACACATAATAGATAAAATTGGAGTGCTCGGAGTCACCTAGTGCAG”, for which the binding signal was 26100 fluorescence intensity (a.u.).

As for “TCATGATTGTCAGATACATAGGATTTGTTTCTACTTAGCTCGGAGTCACCTAGTGCAG”, the binding signal is 17900 fluorescence intensity (a.u.).

Regarding “ATACCACAGATAATTACTGACAAGTCAGTGCAAACCATTGCGGAGTCACCTAGTGCAG”, the binding signal was 8730 fluorescence intensity (a.u.). “TTTGCCAAAATTTGATTAATTTCGTTTGACTTTTGCCGTTCGGAGTCACCTAGTGCAG”: the binding signal is 10300 fluorescence intensity (a.u.). Consider “AACATTAATTGATTGTGTAGAGAGGAATCGTGCGCTGTTTCGGAGTCACCTAGTGCAG”, for which the binding signal is 46800 fluorescence intensity (a.u.).

As to “GCGTAAAGTTTGGATTTTGATTGAAATTGGAGATGATGTGCGGAGTCACCTAGTGCAG”, the binding signal was 26000 fluorescence intensity (a.u.). Next, “CAGCTGCAAACTAATCAATCAATAAACAATTTAGAGGAGCCGGAGTCACCTAGTGCAG”: 24800 fluorescence intensity (a.u.). With “GTATACAACTAATTTCAATCAATCGACATGGTTTAAACCACGGAGTCACCTAGTGCAG”, the binding signal is 21000 fluorescence intensity (a.u.). In the case of “ACCCTCCCATCAATCACTCCTATAGTATACTCGTACTATACGGAGTCACCTAGTGCAG”, the binding signal was 13300 fluorescence intensity (a.u.).

On to “CCTTGACAGATTAATCCTACGTTTTGACCCCATATGTTTTCGGAGTCACCTAGTGCAG”, for which the binding signal was 38400 fluorescence intensity (a.u.).

On to “TAGGCTAGTCATTTAAACTGACTCACAGACAAACTGTTTGCGGAGTCACCTAGTGCAG”, for which the binding signal was 3640 fluorescence intensity (a.u.). Take “AGTGAAAGCGATTATGTGATTGGAGTACAGTGAGCTTGATCGGAGTCACCTAGTGCAG”: the binding signal was 12500 fluorescence intensity (a.u.). For the sequence “TTGAGTAAATTTCGTAAATTATATATACTTTGATCAAACTCGGAGTCACCTAGTGCAG”, the binding signal was 9320 fluorescence intensity (a.u.). Take “ATAAACATGACATTTTAAACGGGCCCTAAAATTGCTACACCGGAGTCACCTAGTGCAG”: the binding signal was 8750 fluorescence intensity (a.u.). Next, “GGTTAATTAAAGCATGCGTTTACATATGCATGGGTGACAGCGGAGTCACCTAGTGCAG”: 18700 fluorescence intensity (a.u.); “ATTATTTTCTCTTTTAATTGCACTAGATCAATACTAATACCGGAGTCACCTAGTGCAG”: 4060 fluorescence intensity (a.u.); “AAGTAATGTTAATTTCTGGAGCCTCAGAAATAGAAATGGTCGGAGTCACCTAGTGCAG”: 4080 fluorescence intensity (a.u.). As to “GTTAATGATTGCGAAGTATAAACTACACAAGCTTTCACTACGGAGTCACCTAGTGCAG”, the binding signal is 41300 fluorescence intensity (a.u.). For “CTGCAACTAAATTTTAGGATTAATTTAAGGAACTTTCGGGCGGAGTCACCTAGTGCAG”, the binding signal is 11300 fluorescence intensity (a.u.).

For “TCAATTAATATATAATTGGCATTGGGTTTGATCATCTCTGCGGAGTCACCTAGTGCAG”, the binding signal is 50700 fluorescence intensity (a.u.). Next, “AAATCAATCTCAAAATTAAGTTTGAAAATTTAAAATTTAGCGGAGTCACCTAGTGCAG”: 6880 fluorescence intensity (a.u.); “TATTTAAATTACTAGGCTGATTATCGAATGATTGACCGGTCGGAGTCACCTAGTGCAG”: 45900 fluorescence intensity (a.u.); “ATCTCTGTCTCTGTCTGTCAATCTCACGCACACCAGCACACGGAGTCACCTAGTGCAG”: 14500 fluorescence intensity (a.u.).

The record behind these values is paper PMC7819943, “Rice protein-binding microarrays: a tool to detect cis-acting elements near promoter regions in rice”.
